From the supplement of paper PMC3334620 come the findings set out here.

Over roughly 33,000 sequences, “E-score (-0.5 to 0.5)” has its median near -0.011; the highest 2% begin near 0.28. Some of the results follow.

In this experiment the target is T1, Gcr1 (UniProt P07261).
T1 sequence: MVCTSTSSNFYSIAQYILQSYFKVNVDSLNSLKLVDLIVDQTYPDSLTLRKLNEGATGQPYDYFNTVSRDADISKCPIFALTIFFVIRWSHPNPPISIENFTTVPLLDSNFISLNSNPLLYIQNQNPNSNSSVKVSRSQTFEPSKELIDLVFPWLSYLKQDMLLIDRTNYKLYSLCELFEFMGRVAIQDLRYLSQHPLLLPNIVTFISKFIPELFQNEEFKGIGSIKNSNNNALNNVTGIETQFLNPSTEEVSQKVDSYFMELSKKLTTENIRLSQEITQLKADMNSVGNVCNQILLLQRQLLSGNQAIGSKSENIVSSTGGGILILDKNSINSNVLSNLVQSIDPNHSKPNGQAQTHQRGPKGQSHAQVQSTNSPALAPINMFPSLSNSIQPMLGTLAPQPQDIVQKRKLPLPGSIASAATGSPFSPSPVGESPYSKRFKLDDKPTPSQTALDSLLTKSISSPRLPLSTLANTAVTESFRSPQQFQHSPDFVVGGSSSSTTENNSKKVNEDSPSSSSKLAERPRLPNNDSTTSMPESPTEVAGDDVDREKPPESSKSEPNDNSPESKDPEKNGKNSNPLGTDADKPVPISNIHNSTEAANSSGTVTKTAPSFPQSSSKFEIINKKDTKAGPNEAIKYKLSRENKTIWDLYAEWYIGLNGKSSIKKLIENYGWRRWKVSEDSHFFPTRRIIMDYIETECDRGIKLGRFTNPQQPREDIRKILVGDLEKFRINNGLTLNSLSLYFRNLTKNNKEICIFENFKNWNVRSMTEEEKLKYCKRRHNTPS
Description: PBM E-score (8-mer binding enrichment) (E-score (-0.5 to 0.5)); higher = stronger / more preferred TF binding; most listed sequences are background and not binding sites. The conditions noted are these: protein concentration: 100 nM; construct: GST-full length. Put shortly: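 Yeast transcription factors, full-length or as DNA-binding domains, were expressed with a GST tag using PURExpress in vitro transcription/translation. At about 100-200 nM they were applied to universal all-10-mer Agilent arrays, double-stranded by primer extension on fresh or once-stripped slides. Fluorescent anti-GST detected bound protein, and masliner normalised the scans. E-scores for ungapped eight-base words, pooled with reverse complements, came from the Universal PBM Analysis Suite.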
For the sequence ACGGACTG, the “PBM E-score” value is -0.16.
With GGTATTAA the figure was -0.083; with AGACTGAG, -0.0581; with CATTTGTA, -0.0462.
For CGGACCAC the value was -0.206; for AGGGGCAT, 0.042.
For the sequence AAAGTTAC, the “PBM E-score” value was -0.0856.
With AAAGACAT the figure was -0.0996; with TACAAATA, 0.157.
With AGCCCGCT, the “PBM E-score” value is -0.0919.
For ATACGTCG, the “PBM E-score” value was -0.0142.
Consider CGACCATA, for which the “PBM E-score” value is -0.0656.
As for CATGTGAG, the “PBM E-score” value is -0.131.
With GCGATAAC the figure was -0.14; with AAAAACCA, 0.128.
Take GGAAATCC: the “PBM E-score” value is -0.0402.
Turning to GACGACGA, the “PBM E-score” value is -0.0324.
Take AACAGATG: the “PBM E-score” value turned out to be 0.00176.
For TTCTTAAA the value was 0.0388; for CAGTTAAA, -0.138.
AGCCCTCG: the “PBM E-score” value was -0.228.
With AACCTAAG the figure was -0.0759; with GTCCATGA, 0.0119; with GCGCGACC, -0.0227.
For CAGAAGGA the value was -0.00692; for CCGTATGC, -0.241; for CAGGAAAA, 0.0134.
Consider CGCGAGAA, for which the “PBM E-score” value is -0.113.
With CTCGCCTA the figure was 0.0109; with CACTGTCA, -0.155; with ACAAAAAA, 0.205.
With AACTAGGG the figure was 0.0287; with TACCTAGA, 0.0114; with AAACAAAA, -0.0284.
For CCCGCAAA the value was 0.05.
Regarding CCTTTACA, the “PBM E-score” value was -0.106.
For CCACGATA the value was 0.228; for AAGGATAC, 0.242.
With CGAGTTCA the figure was 0.015; with GGGCCTAA, -0.182; with ATGTCGTC, -0.0129.
Regarding ACTTCGCC, the “PBM E-score” value turned out to be 0.0237.
For ATTATGTG the value was 0.0106; for AAGGGTTC, -0.00512; for ACTTATTG, 0.103.
For AAACTGAA the value was 0.108; for ACGACCGG, -0.072.
Regarding AACAGCCA, the “PBM E-score” value was determined as 0.0692.
With ACCTCGTG the figure was 0.184.
Take CTCTAATA: the “PBM E-score” value is 0.0731.
Take GCACTGTA: the “PBM E-score” value is -0.19.
With TAGTATCA the figure was 0.0856; with GAAAGGAA, 0.0552.
For AGGTGATG the value was 0.0349; for CTACATCA, 0.00908.
For CTCTGTTA the value was -0.0923; for CCATGGAA, -0.0196; for GTGTGGAA, 0.193.
AATGACCT: the “PBM E-score” value is -0.123.
With ATTGGAAC the figure was 0.221.
With TAACTGTA the figure was -0.219; with GCCACGAC, -0.13.
With AGTTACGC the figure was 0.0168.
On to AGTAGAGG, for which the “PBM E-score” value is -0.066.
For AGCGAGAG the value was -0.17.
For ATAGACGG the value was 0.0138.
For CTGACCAG, the “PBM E-score” value was -0.179.
With GAAACATC the figure was -0.0203; with TCGCAGCA, -0.00799; with CCAGATTC, 0.326.
For CACGCCCG, the “PBM E-score” value was -0.266.
For ATGTGGAG the value was 0.125; for GAATGCCC, -0.0749.
For ACCTAATC the value was 0.182; for AAAGATAT, 0.0731; for CATAAGGC, -0.141.
For ATCATTTA the value was 0.0746; for GGAAGCAA, -0.107.
Regarding GACACGGC, the “PBM E-score” value was -0.105.
With ATTGCGCG the figure was 0.079; with CATACAAA, 0.195.
For AACGAGAC the value was -0.116.
AAAATTAG: the “PBM E-score” value turned out to be 0.235.
With AGGTGCTG the figure was 0.189; with AAACCCTG, 0.0111; with CCCCAGCG, -0.0838.
For the sequence CACTCGGG, the “PBM E-score” value is -0.0875.
For TACCCCAA the value was 0.113.
On to CGAACGTC, for which the “PBM E-score” value was -0.0611.
For AAAGGGTT the value was -0.0414.
In the case of AAGTTTAA, the “PBM E-score” value came to 0.0946.
With GACCTGCA the figure was -0.149; with ACATACAA, 0.0298; with CTCACGTA, -0.116.
For AATACAGT the value was -0.0143; for GTCCTTCA, 0.0722.
With CTCCCAAG, the “PBM E-score” value stood at 0.0273.
For ATTAGCCC the value was -0.106; for ATGCCTGA, -0.00644.
For the sequence TCGCATAA, the “PBM E-score” value stood at 0.0626.
With GTGATACA the figure was -0.127; with AGATTGCC, -0.0983; with CGACAATA, 0.0972.
For CATCCGTC, the “PBM E-score” value is -0.0225.
For TCCGCGGA the value was -0.211; for TTACATAA, -0.115.
With CACCCTTC, the “PBM E-score” value was determined as 0.153.
As to CAACAAAA, the “PBM E-score” value is 0.0565.
With GACTTAGA the figure was -0.143; with ACATTGAG, -0.116.
